# Some of the results follow. At the low end of the ranking the order means little.
# Biological target: SIX1 homeodomain (reference allele) (UniProt Q15475)
# Assay: universal protein binding microarray
# Conditions: Universal all-10-mer PBM (8x60K, AMADID 030236), 300 nM GST-tagged protein, Alexa Fluor 488 anti-GST; buffer, salt, pH and temperature not stated; high values mean tight binding; most listed sequences are background and not binding sites; double strand, one strand shown
row,Sequence,binding signal [E-score]
1,CAGCTGGA,0.157
2,CACTAATG,-0.0519
3,ACAAGTGA,0.0567
4,CAGTAATA,0.128
5,GGGTGGGA,0.0261
6,TTCCTCAA,-0.21
7,ATCTAGGA,0.157
8,ACAAGGGA,-0.0834
9,GTTCGTGA,-0.0136
10,AGCGCACC,-0.24
11,GTTACCAA,0.0209
12,AGACAATA,0.0677
13,TGGCCCAA,-0.206
14,AAAGCTTT,-0.247
15,GAATAATC,0.209
16,AAATTGGG,-0.211
17,ACCACGTG,-0.188
18,CAACTGCA,-0.161
19,CCACGATA,0.324
20,AGCGTTGG,0.0303
21,ATATTAGG,0.257
22,GAAATTGC,-0.276
23,CAAACTGG,0.0125
24,CGACGAAC,0.0173
25,GTACCAGA,-0.00118

row,Sequence,binding signal [E-score]
1,CAGCACAG,-0.122
2,GTTTAACA,-0.0814
3,AGCCCGCG,0.0348
4,AAACATGA,-0.0703
5,AATGCAGC,-0.106
6,CGTAAGGC,-0.208
7,ATCCTTAG,0.283
8,CCAGAGCC,-0.132
9,AGCACAAG,-0.274
10,AAGGATTG,0.0414
11,CCTGGCAA,-0.118
12,CCACGCGG,-0.0852
13,AGCGGCGC,-0.279
14,CAGTGCAA,-0.0851
15,AAGTGCCA,-0.173
16,AGTCCCAG,-0.153
17,GGTATATA,0.384
18,ACTACAAG,-0.196
19,AGTAGTCC,-0.101
20,ATCCTGTA,0.128
21,CATTCGCA,-0.132
22,ATCACTAA,0.166
23,AATCAATC,0.122
24,TAATTTAA,-0.147
25,GCTTATAA,-0.0372

row,Sequence,binding signal [E-score]
1,TATGGACA,0.0876
2,ATTTTGCC,-0.157
3,CCCAGACC,-0.014
4,GGAGCAGA,0.0396
5,AGATTGTA,0.108
6,CATTGAGA,0.0549
7,AGAGACAG,-0.0578
8,GCATAACC,-0.106
9,AAGAGCTG,0.0703
10,CCCTGGTC,0.0462
11,TACGCGGA,0.119
12,TACTACGA,0.0307
13,ATAAGGCG,-0.104
14,ACGAAGTC,-0.317
15,AACGCATG,-0.103
16,CACACAGG,0.0155
17,CAGCGACA,-0.0166
18,CCGCGGGC,0.062
19,GCACAATA,0.141
20,CCCCGTAG,0.176
21,ATACCTGG,0.27
22,CCCGCTCG,0.146
23,AGCTAATC,0.129
24,ATTTTGGC,-0.192
25,AGATCGTC,0.222

row,Sequence,binding signal [E-score]
1,AGCGCCAT,-0.232
2,ACTGCACC,-0.114
3,TTATGAAA,-0.0689
4,CTTAATCC,0.195
5,CATCTGTC,0.092
6,GAGGACCC,-0.0906
7,AGCGAAGC,-0.291
8,AGAGCCCC,-0.022
9,GGCTCTGA,-0.0456
10,GGTTAGGA,0.0125
11,ACCGATGA,0.17
12,AGGGTAAG,0.066
13,CCGGGAAG,-0.141
14,ATTCGACA,-0.0107
15,GGGATGAC,0.13
16,AAAAGCGG,-0.203
17,GGGTCACC,-0.0147
18,AAATCCCG,0.0304
19,CTTTGGAA,-0.161
20,CGAAGACG,-0.109
21,AGGTACTG,-0.0683
22,GGCTGCGA,-0.163
23,AAGATGGG,-0.085
24,CTGACTGA,-0.1
25,CGGCGACC,0.000575

row,Sequence,binding signal [E-score]
1,TACTATGA,0.12
2,GAGTCCGA,-0.0844
3,CGTACTAC,-0.0306
4,GAACAGCA,-0.18
5,GATTTTGC,-0.0829
6,CTGCCCAC,-0.199
7,CTAGAATC,-0.0571
8,AGTGTCCA,0.0234
9,AGCACATG,-0.251
10,TACGAGTA,0.117
11,AGGTCCGG,-0.142
12,CGGTGACA,0.103
13,CACCAGGG,0.0326
14,GTACAAAA,-0.231
15,CCGTACGA,-0.0297
16,ACCTTGTA,0.0115
17,CGCCCACG,-0.0689
18,AAGAATAC,0.214
19,TGGGCCCA,-0.225
20,ATTTGAAC,-0.0561
21,ACTCTGAG,-0.033
22,CACGGTCA,-0.197
23,ATTGGAAG,-0.267
24,ACCACTAT,0.112
25,GATACCAA,0.43

row,Sequence,binding signal [E-score]
1,GTATCAGA,0.466
2,AACAGTAT,0.196
3,ACAGCTGC,-0.213
4,GGATATAC,0.406
5,CGGTATGC,-0.0276
6,CCTAACAC,0.129
7,CGGGAGAG,0.015
8,ATGGAGGA,0.155
9,CGTATAAC,0.204
10,AGTGTGTA,-0.014
11,AATTACGG,-0.171
12,CGCGGTAG,0.0556
13,AGATCCCT,0.292
14,ACGTGAGG,-0.0151
15,TTAGGGAA,-0.227
16,AGTGTTCG,-0.108
17,CTTCCTCC,-0.152
18,CCAGTACC,-0.052
19,GAATCTCC,0.0692
20,CAGGCGGG,-1e-05
21,AGTACAAC,-0.0315
22,ATGAGACC,0.295
23,AAAGCAAT,0.00415
24,GCACTGGC,-0.124
25,AATCGATC,0.138

row,Sequence,binding signal [E-score]
1,ACGCGTGC,-0.225
2,AGCTCGCG,-0.0933
3,CCGTAAAA,-0.0266
4,GCCGCGCC,-0.102
5,ACCATTAA,-0.0435
6,CTTATGTC,-0.0727
7,AAGGGAGT,-0.0708
8,GGCACTCA,-0.172
9,TTGCAAAA,-0.136
10,AGAGACGA,0.0998
11,AAACTTGG,-0.0663
12,CATTGCTA,-0.0124
13,AGTCTAGG,-0.218
14,GTGGTCAA,-0.188
15,AGAACGGA,0.152
16,GTATATAC,0.316
17,CTTGCGAC,0.0198
18,TCAAAAGA,-0.00461
19,TCGGAAGA,-0.0895
20,CAGGACTG,-0.136
21,CGAGGTAG,-0.0176
22,CTGAACAG,-0.0809
23,AATACAGC,0.0583
24,GCGTCAGC,-0.196
25,AACGCTTC,-0.273

row,Sequence,binding signal [E-score]
1,AAACGGTG,0.0199
2,ATCACGCG,0.229
3,ACAGCTAG,-0.101
4,ACTCAAAT,-0.211
5,ACCGCGCC,-0.197
6,GGAACAAC,-0.269
7,CTATTCTA,-0.0429
8,GACGTCGA,-0.113
9,ATGAGATA,0.262
10,AGACGACC,-0.108
11,CCTATGTC,-0.114
12,GATAGGTA,0.325
13,GAATGATA,0.412
14,ACCCGCGC,0.118
15,ACAAAGCC,-0.311
16,CAATTGGA,-0.0926
17,GGAACGAC,-0.301
18,ATGCTCTA,-0.0177
19,GCGGCCGC,-0.0849
20,AATCTACC,0.0996
21,AAATCATG,-0.0525
22,CAGTAACC,0.00862
23,ACTTACCT,-0.0658
24,GTGTTCAA,-0.000595
25,ATAGATAT,0.389

row,Sequence,binding signal [E-score]
1,CGTCGTGC,-0.169
2,CACTATGG,0.0509
3,GTTGGCTA,-0.281
4,CGAGGCCC,-0.163
5,CGTTAAAG,-0.102
6,GGCTAATA,0.201
7,CATCACGA,-0.0199
8,AAATTCGA,-0.131
9,CCATAGAG,-0.0844
10,TCAGCAGA,-0.0658
11,ACACCTGT,0.277
12,GCGTGGTA,0.0657
13,AAAGAGGA,0.13
14,GCTCGTAC,-0.074
15,CTAGCGGC,-0.0633
16,AATATGTA,0.0617
17,CCTTTCCC,-0.149
18,GCTCTAAA,-0.202
19,ATTTGAGA,0.132
20,AAATATGC,0.0709
21,GCCTAAGA,-0.172
22,GAGTACCC,0.0537
23,AATCCTCA,-0.00873
24,CAACCCCA,-0.0787
25,AGTGGTTG,-0.216

row,Sequence,binding signal [E-score]
1,CGGTGTTA,0.312
2,ACTGGGTC,-0.225
3,AGATGGGC,-0.093
4,AGCAGCTA,-0.0667
5,CAGCTACC,-0.0466
6,AAATTACT,-0.101
7,CGTATCCA,0.403
8,CAGCACCG,0.0319
9,TACGGCGA,0.177
10,GCGTCGCC,-0.22
11,AACCCGGA,0.215
12,ACGACTAA,-0.199
13,GCGCCGTA,0.000735
14,ACAACGAC,-0.202
15,GACTAACC,-0.204
16,CGACATGC,0.082
17,ACCTAGAG,0.0359
18,CCAGACTA,-0.0472
19,CCAGCTTA,-0.00604
20,AATGTCTA,-0.0129
21,ATGAGGAG,-0.0427
22,CTACCCGC,0.0519
23,AGAAGGCC,-0.175
24,CGACGGCC,-0.283
25,ACGAGACG,0.131

row,Sequence,binding signal [E-score]
1,ACGCATAG,0.0335
2,AGCCTCTG,-0.118
3,ATACAAAA,0.111
4,ACTCTACG,-0.0959
5,CTTCAAAA,-0.151
6,GCGAGGCA,-0.116
7,CGTCTCAC,0.254
8,GATTTTAA,-0.167
9,AAATCACA,-0.235
10,CACCACGG,-0.0179
11,ATTTTTCG,-0.193
12,AATATCTC,0.274
13,ACCATTTA,-0.101
14,GGAAACAA,-0.094
15,AATCCCAA,-0.00318
16,AACCGAGA,0.162
17,AAGTGGAT,0.182
18,TAAAAATA,0.0228
19,AAGTTACC,-0.139
20,CCAGTCGA,0.0789
21,AAAGTTCA,-0.18
22,TTGCGAAA,-0.0667
23,ACCTAATA,0.2
24,AAAAAAAC,-0.327
25,ATAGCCTC,0.184

row,Sequence,binding signal [E-score]
1,ACGCTAGG,-0.0657
2,CAGTACAG,-0.0151
3,CATCATAG,-0.0304
4,ACCCTCGC,-0.163
5,GGATAACA,0.237
6,CGTCTTGA,0.0536
7,ATTGGCTC,-0.0679
8,TCTGCTCA,0.00471
9,TCACAGGA,0.0301
10,CCGCTGCA,-0.232
11,GTCTGAAC,-0.0323
12,CACGTATG,0.144
13,CTTATTTA,-0.206
14,AGTGCCAC,-0.118
15,CCCGCAAC,-0.0417
16,CGTCGGAG,-0.0392
17,ATAGGCTA,0.0844
18,AATCGACT,-0.349
19,GGATCGAA,0.267
20,ACGTCATG,-0.175
21,ACAGAATC,-0.00969
22,AAGAACTG,-0.0923
23,AGATGCCA,0.0207
24,AGTTAATA,0.145
25,CTCGCTGC,-0.0302

row,Sequence,binding signal [E-score]
1,TAACCGAA,-0.0917
2,TAAGCAAA,-0.236
3,AGGACTTA,-0.237
4,CGAAATCA,-0.215
5,CCCAACAA,-0.11
6,AACTGCCG,-0.111
7,AGGCACTG,-0.0522
8,CTTTTGCA,-0.0889
9,GAGTTAGA,-0.0114
10,AATAGTTG,-0.243
11,CGTAGAAA,-0.339
12,ACATTTAA,-0.118
13,CAGAATAA,-0.118
14,AGCTGACA,-0.13
15,CACGATGG,-0.0175
16,GTTCTGAA,-0.0595
17,CCGGGTTA,0.0696
18,CGGGCACC,0.108
19,ATTTGAAA,-0.11
20,GGAATCGA,-0.0144
21,AGGCCTTG,-0.236
22,CATCCAAA,-0.0916
23,GTACTACA,0.00829
24,CCGACCGC,-0.0178
25,ATTAACTC,-0.0116

row,Sequence,binding signal [E-score]
1,AACAGTAG,-0.134
2,CCAAGCGC,-0.153
3,AATCACTA,-0.0367
4,ATCTCACC,0.335
5,ATCGCTAG,0.279
6,AAACATTA,-0.356
7,CTACCCCA,-0.00649
8,CTTTTTCC,-0.162
9,GAATCCAA,-0.0142
10,CCCAGGCG,0.0247
11,AGCCAAGC,-0.238
12,AGTCTTCA,-0.385
13,CACGGGCC,-0.142
14,CCGGGTAC,0.148
15,AGGTAGTA,0.0393
16,CTGGAGAA,-0.223
17,CAGCGTCG,-0.23
18,TAGTGGGA,0.0867
19,GTACAGAC,-0.23

# From publication PMC10668032
